{
  "source": "the supplement of paper PMC8728848",
  "binders": {"B1": {"name": "Siglec-E (Mus musculus), Q91Y57 (protein)", "chain": "MLLLLLLLLLWGIKGVEGQNPQEVFTLNVERKVVVQEGLCVLVPCNFSYLKKRLTDWTDSDPVHGFWYREGTDRRKDSIVATNNPIRKAVKETRNRFFLLGDPWRNDCSLNIREIRKKDAGLYFFRLERGKTKYNYMWDKMTLVVTALTNTPQILLPETLEAGHPSNLTCSVPWDCGWTAPPIFSWTGTSVSFLSTNTTGSSVLTITPQPQDHGTNLTCQVTLPGTNVSTRMTTRLNVSYAPKNLTVTIYQGADSVSTILKNGSSLPISEGQSLRLICSTDSYPPANLSWSWDNLTLCPSKLSKPGLLELFPVHLKHGGVYTCQAQHALGSQHISLSLSPQSSATLSEMMMGTFVGSGVTALLFLSVCILLLAVRSYRRKPARPAVVAPHPDALKVSVSQNPLVESQADDSSEPLPSILEAAPSSTEEEIHYATLSFHEMKPMNLWGQQDTTTEYSEIKFPQRTAWP"}},
  "assay_in_all_cases": "glycan array binding signal (z-score within array); higher = stronger binding",
  "conditions_in_all_cases": "glycan notation: IUPAC condensed, linker removed",
  "key": {"[1]": {"target": "Neu5Ac(a2-3)Gal(b1-4)GlcNAc(b1-2)Man(a1-3)[Neu5Ac(a2-6)Gal(b1-4)GlcNAc(b1-2)Man(a1-6)]Man(b1-4)GlcNAc(b1-4)GlcNAc", "method_in_brief": "(§1)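 Arrays were curated from the Consortium for Functional Glycomics database, 3228 in total, and kept only where the protein sequence was available. Binding is expressed as a within-array Z-score. This score was averaged across arrays of the same protein sequence at different concentrations or buffers and across linkers, and negative values can be read as non-binding.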"}, "[2]": {"target": "Neu5Ac(a2-3)Gal(b1-4)GlcNAc(b1-2)[Neu5Ac(a2-3)Gal(b1-4)GlcNAc(b1-4)]Man(a1-3)[GlcNAc(b1-4)][Neu5Ac(a2-3)Gal(b1-4)GlcNAc(b1-2)[Neu5Ac(a2-3)Gal(b1-4)GlcNAc(b1-6)]Man(a1-6)]Man(b1-4)GlcNAc(b1-4)GlcNAc", "method_in_brief": "as §1"}, "[3]": {"target": "Neu5Ac(a2-3)Gal(b1-4)GlcNAc(b1-2)[Neu5Ac(a2-3)Gal(b1-4)GlcNAc(b1-4)]Man(a1-3)[GlcNAc(b1-4)][Neu5Ac(a2-3)Gal(b1-4)GlcNAc(b1-4)Man(a1-6)]Man(b1-4)GlcNAc(b1-4)GlcNAc", "method_in_brief": "as §1"}, "[4]": {"target": "Neu5Ac(a2-3)Gal(b1-4)GlcNAc(b1-2)[Neu5Ac(a2-3)Gal(b1-4)GlcNAc(b1-6)]Man(a1-6)[Neu5Ac(a2-3)Gal(b1-4)GlcNAc(b1-2)Man(a1-3)][GlcNAc(b1-4)]Man(b1-4)GlcNAc(b1-4)GlcNAc", "method_in_brief": "as §1"}, "[5]": {"target": "Neu5Ac(a2-3)Gal(b1-4)GlcNAc(b1-3)Gal", "method_in_brief": "as §1"}, "[6]": {"target": "Neu5Ac(a2-3)Gal(b1-4)GlcNAc(b1-3)Gal(b1-3)GlcNAc", "method_in_brief": "as §1"}, "[7]": {"target": "Neu5Ac(a2-3)Gal(b1-4)GlcNAc(b1-3)Gal(b1-4)GlcNAc", "method_in_brief": "as §1"}, "[8]": {"target": "Neu5Ac(a2-3)Gal(b1-4)GlcNAc(b1-3)Gal(b1-4)GlcNAc(b1-2)Man(a1-3)[Neu5Ac(a2-3)Gal(b1-4)GlcNAc(b1-3)Gal(b1-4)GlcNAc(b1-2)Man(a1-6)]Man(b1-4)GlcNAc(b1-4)GlcNAc", "method_in_brief": "as §1"}, "[9]": {"target": "Neu5Ac(a2-3)Gal(b1-4)GlcNAc(b1-3)Gal(b1-4)GlcNAc(b1-3)Gal(b1-4)GlcNAc", "method_in_brief": "as §1"}, "[10]": {"target": "Neu5Ac(a2-3)Gal(b1-4)GlcNAc(b1-3)Gal(b1-4)GlcNAc(b1-3)Gal(b1-4)GlcNAc(b1-2)Man(a1-3)[Neu5Ac(a2-3)Gal(b1-4)GlcNAc(b1-3)Gal(b1-4)GlcNAc(b1-3)Gal(b1-4)GlcNAc(b1-2)Man(a1-6)]GalNAc", "method_in_brief": "as §1"}, "[11]": {"target": "Neu5Ac(a2-3)Gal(b1-4)GlcNAc(b1-3)Gal(b1-4)GlcNAc(b1-3)GalNAc", "method_in_brief": "as §1"}, "[12]": {"target": "Neu5Ac(a2-3)Gal(b1-4)GlcNAc(b1-3)Gal(b1-4)GlcNAc(b1-3)[Neu5Ac(a2-3)Gal(b1-4)GlcNAc(b1-3)Gal(b1-4)GlcNAc(b1-6)]GalNAc", "method_in_brief": "as §1"}, "[13]": {"target": "Neu5Ac(a2-3)Gal(b1-4)GlcNAc(b1-3)Gal(b1-4)GlcNAc(b1-6)[Gal(b1-3)]GalNAc", "method_in_brief": "as §1"}, "[14]": {"target": "Neu5Ac(a2-3)Gal(b1-4)GlcNAc(b1-3)Gal(b1-4)[Fuc(a1-3)]GlcNAc", "method_in_brief": "as §1"}, "[15]": {"target": "Neu5Ac(a2-3)Gal(b1-4)GlcNAc(b1-3)GalNAc", "method_in_brief": "as §1"}, "[16]": {"target": "Neu5Ac(a2-3)Gal(b1-4)GlcNAc(b1-3)[Neu5Ac(a2-3)Gal(b1-4)GlcNAc(b1-6)]GalNAc", "method_in_brief": "as §1"}, "[17]": {"target": "Neu5Ac(a2-3)Gal(b1-4)GlcNAc(b1-6)GalNAc", "method_in_brief": "as §1"}, "[18]": {"target": "Neu5Ac(a2-3)Gal(b1-4)GlcNAc(b1-6)[Gal(b1-3)]GalNAc", "method_in_brief": "as §1"}, "[19]": {"target": "Neu5Ac(a2-3)Gal(b1-4)GlcNAc(b1-6)[Neu5Ac(a2-3)Gal(b1-3)]GalNAc", "method_in_brief": "as §1"}, "[20]": {"target": "Neu5Ac(a2-3)Gal(b1-4)GlcNAc6S", "method_in_brief": "as §1"}, "[21]": {"target": "Neu5Ac(a2-3)Gal(b1-4)[Fuc(a1-3)]GlcNAc", "method_in_brief": "as §1"}, "[22]": {"target": "Neu5Ac(a2-3)Gal(b1-4)[Fuc(a1-3)]GlcNAc(b1-2)Man", "method_in_brief": "as §1"}, "[23]": {"target": "Neu5Ac(a2-3)Gal(b1-4)[Fuc(a1-3)]GlcNAc(b1-3)Gal", "method_in_brief": "as §1"}, "[24]": {"target": "Neu5Ac(a2-3)Gal(b1-4)[Fuc(a1-3)]GlcNAc(b1-3)Gal(b1-4)GlcNAc", "method_in_brief": "as §1"}, "[25]": {"target": "Neu5Ac(a2-3)Gal(b1-4)[Fuc(a1-3)]GlcNAc(b1-3)Gal(b1-4)[Fuc(a1-3)]GlcNAc(b1-3)Gal(b1-4)[Fuc(a1-3)]GlcNAc", "method_in_brief": "as §1"}, "[26]": {"target": "Neu5Ac(a2-3)Gal(b1-4)[Fuc(a1-3)]GlcNAc(b1-3)GalNAc", "method_in_brief": "as §1"}, "[27]": {"target": "Neu5Ac(a2-3)Gal(b1-4)[Fuc(a1-3)]GlcNAc(b1-6)[Gal(b1-3)]GalNAc", "method_in_brief": "as §1"}, "[28]": {"target": "Neu5Ac(a2-3)Gal(b1-4)[Fuc(a1-3)]GlcNAc(b1-6)[Neu5Ac(a2-3)Gal(b1-3)]GalNAc", "method_in_brief": "as §1"}, "[29]": {"target": "Neu5Ac(a2-3)Gal(b1-4)[Fuc(a1-3)]GlcNAc6S", "method_in_brief": "as §1"}, "[30]": {"target": "Neu5Ac(a2-3)Gal6S(b1-4)GlcNAc", "method_in_brief": "as §1"}, "[31]": {"target": "Neu5Ac(a2-3)Gal6S(b1-4)[Fuc(a1-3)]GlcNAc", "method_in_brief": "as §1"}, "Neu5Ac(a2-3)GalNAc": {"target": "Neu5Ac(a2-3)GalNAc", "method_in_brief": "as §1"}, "[32]": {"target": "Neu5Ac(a2-3)GalNAc(b1-4)GlcNAc", "method_in_brief": "as §1"}, "[33]": {"target": "Neu5Ac(a2-3)[GalNAc(b1-4)]Gal(b1-4)Glc", "method_in_brief": "as §1"}, "[34]": {"target": "Neu5Ac(a2-3)[GalNAc(b1-4)]Gal(b1-4)GlcNAc", "method_in_brief": "as §1"}, "[35]": {"target": "Neu5Ac(a2-3)[GalNAc(b1-4)]Gal(b1-4)GlcNAc(b1-3)GalNAc", "method_in_brief": "as §1"}, "[36]": {"target": "Neu5Ac(a2-3)[Neu5Ac(a2-6)]GalNAc", "method_in_brief": "as §1"}},
  "note": "This is one part of the list.",
  "data": [
    {"binder": "B1", "values": [
      {"measurement": "glycan array binding signal (z-score)", "setting": "[1]", "result": -0.554},
      {"measurement": "glycan array binding signal (z-score)", "setting": "[2]", "result": -0.131},
      {"measurement": "glycan array binding signal (z-score)", "setting": "[3]", "result": -0.086},
      {"measurement": "glycan array binding signal (z-score)", "setting": "[4]", "result": -0.562},
      {"measurement": "glycan array binding signal (z-score)", "setting": "[5]", "result": -0.071},
      {"measurement": "glycan array binding signal (z-score)", "setting": "[6]", "result": -0.64},
      {"measurement": "glycan array binding signal (z-score)", "setting": "[7]", "result": -0.459},
      {"measurement": "glycan array binding signal (z-score)", "setting": "[8]", "result": -0.264},
      {"measurement": "glycan array binding signal (z-score)", "setting": "[9]", "result": -0.343},
      {"measurement": "glycan array binding signal (z-score)", "setting": "[10]", "result": -0.242},
      {"measurement": "glycan array binding signal (z-score)", "setting": "[11]", "result": -0.308},
      {"measurement": "glycan array binding signal (z-score)", "setting": "[12]", "result": -0.335},
      {"measurement": "glycan array binding signal (z-score)", "setting": "[13]", "result": -0.388},
      {"measurement": "glycan array binding signal (z-score)", "setting": "[14]", "result": -0.489},
      {"measurement": "glycan array binding signal (z-score)", "setting": "[15]", "result": 0.58},
      {"measurement": "glycan array binding signal (z-score)", "setting": "[16]", "result": 0.079},
      {"measurement": "glycan array binding signal (z-score)", "setting": "[17]", "result": 0.177},
      {"measurement": "glycan array binding signal (z-score)", "setting": "[18]", "result": -0.418},
      {"measurement": "glycan array binding signal (z-score)", "setting": "[19]", "result": -0.45},
      {"measurement": "glycan array binding signal (z-score)", "setting": "[20]", "result": -0.318},
      {"measurement": "glycan array binding signal (z-score)", "setting": "[21]", "result": -0.391},
      {"measurement": "glycan array binding signal (z-score)", "setting": "[22]", "result": -0.192},
      {"measurement": "glycan array binding signal (z-score)", "setting": "[23]", "result": -0.399},
      {"measurement": "glycan array binding signal (z-score)", "setting": "[24]", "result": -0.353},
      {"measurement": "glycan array binding signal (z-score)", "setting": "[25]", "result": -0.568},
      {"measurement": "glycan array binding signal (z-score)", "setting": "[26]", "result": -0.668},
      {"measurement": "glycan array binding signal (z-score)", "setting": "[27]", "result": -0.331},
      {"measurement": "glycan array binding signal (z-score)", "setting": "[28]", "result": -0.048},
      {"measurement": "glycan array binding signal (z-score)", "setting": "[29]", "result": -0.096},
      {"measurement": "glycan array binding signal (z-score)", "setting": "[30]", "result": -0.532},
      {"measurement": "glycan array binding signal (z-score)", "setting": "[31]", "result": -0.513},
      {"measurement": "glycan array binding signal (z-score)", "setting": "Neu5Ac(a2-3)GalNAc", "result": 0.203},
      {"measurement": "glycan array binding signal (z-score)", "setting": "[32]", "result": -0.339},
      {"measurement": "glycan array binding signal (z-score)", "setting": "[33]", "result": -0.34},
      {"measurement": "glycan array binding signal (z-score)", "setting": "[34]", "result": -0.484},
      {"measurement": "glycan array binding signal (z-score)", "setting": "[35]", "result": -0.355},
      {"measurement": "glycan array binding signal (z-score)", "setting": "[36]", "result": -0.301}
    ]}
  ]
}
